Reference: a collection of fitness landscapes (doi:10.1126/science.1257360)
Some of the results follow.

B1: PhoQ; a variant is named by its letters at X, in order, P23837 (parent)
chain: MKKLLRLFFPLSLRVRFLLATAAVVLVLSLAYGMVALIGYSVSFDKTTFRLLRGESNLFYTLAKWENNKLHVELPENIDKQSPTMTLIYDENGQLLWAQRDVPWLMKMIQPDWLKSNGFHEIEADVNDTSLLLSGDHSIQQQLQEVREDDDDAEMTHSVAVNVYPATSRMPKLTIVVVDTIPVELKSSYMVWSWFIYVLSANLLLVIPLLWVAAWWSLRPIEALAKEVRELEEHNRELLNPATTRELTSLVRNLNRLLKSERERYDKYRTTLTDLTHSLKTPLXXLQXXLRSLRSEKMSVSDAEPVMLEQISRISQQIGYYLHRASMRGGTLLSRELHPVAPLLDNLTSALNKVYQRKGVNISLDISPEISFVGEQNDFVEVMGNVLDNACKYCLEFVEISARQTDEHLYIVVEDDGPGIPLSKREVIFDRGQRVDTLRPGQGVGLAVAREITEQYEGKIVAGESMLGGARMEVIFGRQHSAPKDE

Variants of: B1
Test: enrichment ratio after two sorts for PhoP signalling (ratio (wild type AVST 3.29)); higher = more functional
Details: with PhoP (E. coli)
For MCKL, the enrichment ratio was no more than 0.25.
In the case of YLQH, the enrichment ratio is reported as no more than 0.25.
IIWD showed an enrichment ratio of no more than 0.25.
In the case of FYTL, the enrichment ratio is reported as no more than 0.25.
FQRM showed an enrichment ratio of 1.38.
With LLWG the enrichment ratio was no more than 0.25.
For DMKH, the enrichment ratio was no more than 0.25.
Variant RQQF has an enrichment ratio of no more than 0.25.
AHWN was tested, and the enrichment ratio was no more than 0.25.
VQHY gave an enrichment ratio of no more than 0.25.
KWSL was tested, and the enrichment ratio was no more than 0.25.
In the case of KNDV, the enrichment ratio is reported as no more than 0.25.
In the case of LESG, the enrichment ratio is reported as no more than 0.25.
SGKF was tested, and the enrichment ratio was no more than 0.25.
MIVR showed an enrichment ratio of no more than 0.25.
RIRG was tested, and the enrichment ratio was no more than 0.25.
ITCW was tested, and the enrichment ratio was no more than 0.25.
With YCTV the enrichment ratio was 0.338.
QLDC showed an enrichment ratio of no more than 0.25.
For AGHV, the enrichment ratio was no more than 0.25.
For TTGV, the enrichment ratio was 2.49.
ARAT showed an enrichment ratio of no more than 0.25.
Work on GVRK yielded an enrichment ratio of no more than 0.25.
For PFQA, the enrichment ratio was no more than 0.25.
QNHK showed an enrichment ratio of no more than 0.25.
QPPM gave an enrichment ratio of no more than 0.25.
KKRV showed an enrichment ratio of no more than 0.25.
For PAWT, the enrichment ratio was no more than 0.25.
With AASK the enrichment ratio was 0.881.
In the case of QTTG, the enrichment ratio is reported as no more than 0.25.
NSWV showed an enrichment ratio of no more than 0.25.
Variant YKHH has an enrichment ratio of no more than 0.25.
Variant YMVF has an enrichment ratio of no more than 0.25.
In the case of MDVD, the enrichment ratio is reported as no more than 0.25.
IRTH gave an enrichment ratio of no more than 0.25.
FQYI was tested, and the enrichment ratio was no more than 0.25.
With NFGP the enrichment ratio was no more than 0.25.
In the case of YAMQ, the enrichment ratio is reported as 0.285.
In the case of QCRR, the enrichment ratio is reported as no more than 0.25.
Work on GEDP yielded an enrichment ratio of no more than 0.25.
In the case of ACYA, the enrichment ratio is reported as no more than 0.25.
With DMIS the enrichment ratio was no more than 0.25.
In the case of GTES, the enrichment ratio is reported as no more than 0.25.
In the case of MQDS, the enrichment ratio is reported as no more than 0.25.
WTGK gave an enrichment ratio of no more than 0.25.
In the case of AVQH, the enrichment ratio is reported as no more than 0.25.
In the case of IFAK, the enrichment ratio is reported as no more than 0.25.
Work on PFWA yielded an enrichment ratio of no more than 0.25.
GHGP showed an enrichment ratio of no more than 0.25.
Work on CRKI yielded an enrichment ratio of no more than 0.25.
YSLG showed an enrichment ratio of 7.21.
Work on RHWY yielded an enrichment ratio of no more than 0.25.
For SGVS, the enrichment ratio was 13.
ASIW gave an enrichment ratio of no more than 0.25.
SNFH showed an enrichment ratio of no more than 0.25.
For WDAE, the enrichment ratio was no more than 0.25.
RYVA showed an enrichment ratio of no more than 0.25.
FMMG gave an enrichment ratio of no more than 0.25.
In the case of NSRM, the enrichment ratio is reported as no more than 0.25.
With SDGT the enrichment ratio was no more than 0.25.
Work on LHEM yielded an enrichment ratio of no more than 0.25.
Work on MFVV yielded an enrichment ratio of no more than 0.25.
With ISMY the enrichment ratio was no more than 0.25.
Work on NRGH yielded an enrichment ratio of no more than 0.25.
Work on HHSN yielded an enrichment ratio of no more than 0.25.
With IDCY the enrichment ratio was no more than 0.25.
Work on HFCL yielded an enrichment ratio of no more than 0.25.
For SIFV, the enrichment ratio was no more than 0.25.
Work on GDQG yielded an enrichment ratio of no more than 0.25.
KQHC gave an enrichment ratio of no more than 0.25.
With GGLS the enrichment ratio was 10.6.
QVRV gave an enrichment ratio of no more than 0.25.
With WDPR the enrichment ratio was no more than 0.25.
QDPC was tested, and the enrichment ratio was no more than 0.25.
In the case of LGSP, the enrichment ratio is reported as no more than 0.25.
In the case of EGYV, the enrichment ratio is reported as no more than 0.25.
For RHGH, the enrichment ratio was no more than 0.25.
FDNK showed an enrichment ratio of no more than 0.25.
For RPTI, the enrichment ratio was no more than 0.25.
Variant DFKH has an enrichment ratio of no more than 0.25.
FKDN gave an enrichment ratio of no more than 0.25.
FHQV showed an enrichment ratio of no more than 0.25.
In the case of HDRC, the enrichment ratio is reported as no more than 0.25.
GKDP gave an enrichment ratio of no more than 0.25.
With VTPH the enrichment ratio was no more than 0.25.
In the case of TFWI, the enrichment ratio is reported as no more than 0.25.
VWLF was tested, and the enrichment ratio was no more than 0.25.
HTAY was tested, and the enrichment ratio was no more than 0.25.
With HDIQ the enrichment ratio was no more than 0.25.
Variant YDQT has an enrichment ratio of no more than 0.25.
In the case of PCFF, the enrichment ratio is reported as no more than 0.25.
Variant MDSM has an enrichment ratio of no more than 0.25.
ERDQ gave an enrichment ratio of no more than 0.25.
For DRKN, the enrichment ratio was no more than 0.25.
TGFP was tested, and the enrichment ratio was no more than 0.25.
Work on MANF yielded an enrichment ratio of no more than 0.25.
With DCFF the enrichment ratio was no more than 0.25.
QKMA was tested, and the enrichment ratio was no more than 0.25.
FPKD gave an enrichment ratio of no more than 0.25.
NAPV gave an enrichment ratio of no more than 0.25.
For GFNL, the enrichment ratio was 0.304.
FWIK showed an enrichment ratio of no more than 0.25.
Variant YAAP has an enrichment ratio of no more than 0.25.
For ETTI, the enrichment ratio was no more than 0.25.
MAWV showed an enrichment ratio of no more than 0.25.
In the case of NKKY, the enrichment ratio is reported as no more than 0.25.
Work on DPNR yielded an enrichment ratio of no more than 0.25.
With AKDG the enrichment ratio was no more than 0.25.
KMYL showed an enrichment ratio of no more than 0.25.
In the case of AMVM, the enrichment ratio is reported as 5.51.
Variant WRKW has an enrichment ratio of no more than 0.25.
GYSD gave an enrichment ratio of no more than 0.25.
RTFF gave an enrichment ratio of no more than 0.25.
Work on VYTN yielded an enrichment ratio of no more than 0.25.
QTWK showed an enrichment ratio of no more than 0.25.
Work on SFSL yielded an enrichment ratio of no more than 0.25.
In the case of LFWC, the enrichment ratio is reported as no more than 0.25.
Work on YDAH yielded an enrichment ratio of no more than 0.25.
SVWD was tested, and the enrichment ratio was no more than 0.25.
Work on LMAE yielded an enrichment ratio of no more than 0.25.
Work on RLTA yielded an enrichment ratio of no more than 0.25.
With SRRV the enrichment ratio was no more than 0.25.
MLTC showed an enrichment ratio of no more than 0.25.
With PHRP the enrichment ratio was no more than 0.25.
With ILGQ the enrichment ratio was no more than 0.25.
FQQM was tested, and the enrichment ratio was no more than 0.25.
Work on GCMY yielded an enrichment ratio of no more than 0.25.
Variant GMHL has an enrichment ratio of no more than 0.25.
Variant QACS has an enrichment ratio of no more than 0.25.
QQPI was tested, and the enrichment ratio was no more than 0.25.
TEED was tested, and the enrichment ratio was no more than 0.25.
EKRR gave an enrichment ratio of no more than 0.25.
NPDQ was tested, and the enrichment ratio was no more than 0.25.
FIWS was tested, and the enrichment ratio was no more than 0.25.
Variant RMWL has an enrichment ratio of no more than 0.25.
Variant QRKC has an enrichment ratio of no more than 0.25.
GDAV gave an enrichment ratio of 8.98.
VGHA gave an enrichment ratio of no more than 0.25.
HIVD was tested, and the enrichment ratio was no more than 0.25.
With KCNS the enrichment ratio was no more than 0.25.
With LFRE the enrichment ratio was no more than 0.25.
SSCM showed an enrichment ratio of 19.
In the case of LRME, the enrichment ratio is reported as no more than 0.25.
MYMV showed an enrichment ratio of 0.602.
RFVK was tested, and the enrichment ratio was no more than 0.25.
In the case of KTPV, the enrichment ratio is reported as no more than 0.25.
GTTF was tested, and the enrichment ratio was 8.24.
ISES gave an enrichment ratio of no more than 0.25.
Variant YKIE has an enrichment ratio of no more than 0.25.
With ESFP the enrichment ratio was no more than 0.25.
In the case of DIYA, the enrichment ratio is reported as no more than 0.25.
For HGEE, the enrichment ratio was no more than 0.25.
Work on IHTT yielded an enrichment ratio of 1.73.
RQWW gave an enrichment ratio of no more than 0.25.
With NSYR the enrichment ratio was no more than 0.25.
For SQAK, the enrichment ratio was no more than 0.25.
VMVC showed an enrichment ratio of no more than 0.25.
SFAT showed an enrichment ratio of no more than 0.25.
QVWR showed an enrichment ratio of no more than 0.25.
ESSV was tested, and the enrichment ratio was 1.56.
In the case of VKLH, the enrichment ratio is reported as no more than 0.25.
For TSVR, the enrichment ratio was no more than 0.25.
GERF showed an enrichment ratio of no more than 0.25.
DPKL was tested, and the enrichment ratio was no more than 0.25.
For KDLK, the enrichment ratio was no more than 0.25.
With NCCY the enrichment ratio was no more than 0.25.
Variant FSGE has an enrichment ratio of no more than 0.25.
Work on GSCA yielded an enrichment ratio of 0.424.
Variant HEVL has an enrichment ratio of no more than 0.25.
Work on QILT yielded an enrichment ratio of no more than 0.25.
KYFQ was tested, and the enrichment ratio was no more than 0.25.
Work on IWDI yielded an enrichment ratio of no more than 0.25.
Variant MCTP has an enrichment ratio of no more than 0.25.
Variant IKQT has an enrichment ratio of no more than 0.25.
In the case of IWYD, the enrichment ratio is reported as no more than 0.25.
For PCMN, the enrichment ratio was no more than 0.25.
HNPV showed an enrichment ratio of no more than 0.25.
Variant DVFQ has an enrichment ratio of no more than 0.25.
Variant NMFD has an enrichment ratio of no more than 0.25.
HEWV gave an enrichment ratio of no more than 0.25.
With GTRD the enrichment ratio was no more than 0.25.
LKTD showed an enrichment ratio of no more than 0.25.
With HDDT the enrichment ratio was no more than 0.25.
Variant SHAV has an enrichment ratio of no more than 0.25.
For IAPF, the enrichment ratio was no more than 0.25.
Work on VNIA yielded an enrichment ratio of no more than 0.25.
GSNV gave an enrichment ratio of no more than 0.25.
ISCA gave an enrichment ratio of no more than 0.25.
In the case of WNPT, the enrichment ratio is reported as no more than 0.25.
With KADS the enrichment ratio was no more than 0.25.
LALT was tested, and the enrichment ratio was 0.682.
Work on HVTK yielded an enrichment ratio of no more than 0.25.
With RKWA the enrichment ratio was no more than 0.25.
QHHW gave an enrichment ratio of no more than 0.25.
VFCH showed an enrichment ratio of no more than 0.25.
